In the supplement of paper PMC9446081:
In all, about 39,000 compounds went through this assay and about 220 (0.56%) showed activity. The list shows a part of the results.

Tested on: Escherichia coli K-12 BW25113
Assay: relative growth (OD600 normalised to plate interquartile mean) (fraction); higher = less growth inhibition, active = 0.2 or less
Conditions: 50 µM; LB; incubation time: overnight (16-24 h)
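Also: static incubation at 37 °C against the wild-type strain, values averaged over two biological replicates.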

| SMILES | relative growth |
| --- | --- |
| C[C@H]1CN([C@@H](C)CO)C(=O)c2cc(NC(=O)CCCN(C)C)ccc2O[C@@H]1CN(C)S(=O)(=O)c1ccc(F)cc1 | inactive: 0.994 |
| Cc1noc(C)c1S(=O)(=O)Nc1cccc2c1O[C@@H](CN(C)C(=O)Nc1ccc3c(c1)OCO3)[C@@H](C)CN([C@H](C)CO)C2=O | inactive: 1.01 |
| C[C@@H]1CN([C@@H](C)CO)C(=O)c2c(c3ccccc3n2C)-c2ccccc2CO[C@@H]1CN(C)C(=O)Nc1ccc2c(c1)OCO2 | inactive: 1.03 |
| C=CCNC(=O)C(=O)NC[C@H]1OCCCN1S(=O)(=O)c1ccccc1 | inactive: 1 |
| COc1ccc(S(=O)(=O)N(C)C[C@@H]2Oc3ccc(NS(=O)(=O)c4ccccc4)cc3CC(=O)N([C@H](C)CO)C[C@@H]2C)cc1 | inactive: 0.988 |
| CN(C)C(=O)C[C@@H]1CC[C@H](NC(=O)C2CC2)[C@H](CO)O1 | inactive: 1.04 |
| C[C@@H]1CCCCO[C@H](CN(C)Cc2ccc(C(=O)Nc3ccccc3N)cc2)[C@@H](C)CN([C@H](C)CO)C(=O)c2cc(N(C)C)ccc2O1 | inactive: 1 |
| C[C@@H]1CN([C@H](C)CO)S(=O)(=O)c2ccc(C#Cc3ccccc3F)cc2O[C@@H]1CN(C)C(=O)Cc1cccnc1 | inactive: 1.01 |
| CC(C)[Si](C#C[Si](C(C)C)(C(C)C)C(C)C)(O[C@H](c1ccccc1)c1cn(Cc2ccccc2)nn1)C(C)C | inactive: 0.979 |
| C[C@H](CO)N1C[C@H](C)[C@H](CN(C)Cc2ccc(-c3ccccc3)cc2)Oc2ccc(NC(=O)NC3CCCCC3)cc2C1=O | inactive: 1.04 |
| C[C@@H]1CN([C@@H](C)CO)C(=O)c2cc(NC(=O)Cn3cnnn3)ccc2O[C@H]1CN(C)S(C)(=O)=O | inactive: 1 |
| NC(=O)N1C(=O)[C@H]2[C@H](C1=O)[C@H]1C=C(CCCO)[C@@H]2[C@H](c2ccc(CN3CCCC3)cc2)N1Cc1sc2ccccc2c1Cl | inactive: 1.02 |
| C=CC[C@@H](CC(=O)N[C@H](CO)Cc1ccccc1)C(=O)NCCOC(=O)[C@H](CC=C)CC(=O)OC(C)(C)C | inactive: 1.01 |
| C[C@@H]1CN([C@@H](C)CO)C(=O)Cc2cc(NC(=O)Nc3cccc4ccccc34)ccc2O[C@H]1CN(C)C(=O)Nc1ccc2c(c1)OCO2 | inactive: 1.02 |
| COc1ccc(NC(=O)Nc2ccc3c(c2)C(=O)N([C@@H](C)CO)C[C@@H](C)[C@@H](CN(C)Cc2ccc(C(F)(F)F)cc2)O3)cc1 | inactive: 0.955 |
| COCCOC(=O)N1C(=O)[C@@]2(c3cc(C#Cc4ccc(OC)cc4)ccc31)[C@H](C(=O)NC[C@H](O)c1ccccc1)[C@H]1C(=O)O[C@H](c3ccccc3)[C@H](c3ccccc3)N1[C@@H]2c1ccc(O)cc1 | inactive: 1.05 |
| COc1ccccc1C#Cc1ccc2c(c1)O[C@@H](CN(C)Cc1ccncc1)[C@@H](C)CN([C@@H](C)CO)S2(=O)=O | inactive: 0.988 |
| NCC1CCC(C(=O)O)CC1 (stereo not drawn) | inactive: 1.12 |
| C[C@H](NC(=O)[C@@H]1N[C@@H]2c3ccc(-c4ccc(C(=O)N(C)C)cc4)c(=O)n3C[C@@H]2[C@H]1CO)c1ccccc1 | inactive: 0.998 |
| CC(C)(C)[S@](=O)N1Cc2cc(C(=O)NCc3ccncc3)nc(-c3cccc(-c4ccc(C#N)cc4)c3)c2[C@@H]1CCO | inactive: 0.983 |

| SMILES | relative growth |
| --- | --- |
| C[C@H]1CN([C@@H](C)CO)C(=O)Cc2cc(NC(=O)CCCCCC(=O)Nc3ccccc3N)ccc2O[C@@H]1CN(C)Cc1ccc(Oc2ccccc2)cc1 | inactive: 0.973 |
| C=CCN1C(=O)[C@@]2(O[C@@H](CCn3cc(CCO)nn3)[C@H]([Si](C)(C)c3ccc(OC)cc3)[C@H]2C)c2cc(N3CCC3=O)ccc21 | inactive: 1.01 |
| CN1CCN(C(=O)C[C@H]2CC[C@H]3[C@@H](COC[C@H](O)CN3C(=O)Nc3cc(Cl)cc(Cl)c3)O2)CC1 | inactive: 0.976 |
| O=C1NCCN1CCNC(=S)NC1CC1 | inactive: 0.992 |
| Cc1noc(C)c1S(=O)(=O)Nc1ccc2c(c1)C(=O)N([C@H](C)CO)C[C@@H](C)[C@H](CN(C)C(=O)Nc1ccccc1)O2 | inactive: 0.997 |
| COc1ccc(S(=O)(=O)N(C)C[C@H]2OCCCC[C@@H](C)Oc3ccc(NS(C)(=O)=O)cc3C(=O)N([C@@H](C)CO)C[C@H]2C)cc1 | inactive: 0.963 |
| C[C@H](CO)N1C[C@H](C)[C@@H](CN(C)C(=O)c2ccncc2)Oc2cc(C#CC3(O)CCCC3)ccc2S1(=O)=O | inactive: 1 |
| CN1C(=O)c2cc(NC(=O)Cc3cccs3)ccc2OC[C@@H]2O[C@@H](CC(=O)NCCc3ccncc3)CC[C@H]21 | inactive: 1 |
| C[C@@H]1CN([C@@H](C)CO)C(=O)c2cccc(NS(C)(=O)=O)c2O[C@@H]1CN(C)S(=O)(=O)c1ccc(Cl)cc1 | inactive: 0.83 |
| O=C(CCCCCNC(=O)OCCCCO[C@@H]1C[C@H](c2ccc(C(F)(F)F)cc2)C=C(C(=O)N2CCN(Cc3ccccc3)CC2)O1)NO | inactive: 1.02 |
| C[C@@H]1CN([C@@H](C)CO)C(=O)Cc2cc(NC(=O)c3ccncc3)ccc2O[C@@H]1CN(C)S(=O)(=O)c1ccc(Cl)cc1 | inactive: 0.984 |
| C[C@H]1CN([C@@H](C)CO)C(=O)CCCn2cc(nn2)CO[C@@H]1CN(C)C(=O)c1ccc(N2CCN(C)CC2)cc1 | inactive: 0.988 |
| CCN1C(=O)[C@H]2[C@H]3[C@H](O)[C@H](O)C/C(=N\OC[C@@H](O)COCc4ccco4)[C@@H]3CC[C@H]2C1=O | inactive: 0.989 |
| Cc1noc(C)c1S(=O)(=O)Nc1cccc2c1O[C@@H](CN(C)C(=O)Nc1ccccc1)[C@@H](C)CN([C@@H](C)CO)C2=O | inactive: 0.918 |
| Cc1ccc(S(=O)(=O)N(C)C[C@@H]2OCCCC[C@H](C)Oc3ccc(NC(=O)CCC(F)(F)F)cc3C(=O)N([C@H](C)CO)C[C@@H]2C)cc1 | inactive: 1.04 |
| C[C@@H]1CN([C@H](C)CO)C(=O)Cc2cc(NC(=O)Nc3ccccc3)ccc2O[C@H]1CN(C)C(=O)Nc1cccc2ccccc12 | inactive: 1.01 |
| C[C@@H]1CCCCO[C@@H](CN(C)C(=O)Nc2ccccc2)[C@@H](C)CN([C@H](C)CO)C(=O)c2cc(NC(=O)Nc3ccc4c(c3)OCO4)ccc2O1 | inactive: 1 |
| C[C@H]1[C@H]([Si](C)(C)F)[C@@H](CC(=O)N2Cc3ccccc3C[C@H]2CO)O[C@]12C(=O)N(c1ccccc1)c1ccccc12 | inactive: 1.02 |
| COc1ccc(S(=O)(=O)N(C)C[C@@H]2Oc3c(NC(=O)Nc4cccc5ccccc45)cccc3C(=O)N([C@H](C)CO)C[C@H]2C)cc1 | inactive: 1.01 |
| C[C@@H]1CCCCO[C@H](CN(C)Cc2ccc(C(F)(F)F)cc2)[C@@H](C)CN([C@@H](C)CO)C(=O)c2cc(NC(=O)c3ccncc3)ccc2O1 | inactive: 0.967 |

| SMILES | relative growth |
| --- | --- |
| CC(C)(O)c1ccccc1CCC(SCC1(CC(=O)[O-])CC1)c1cccc(C=Cc2ccc3ccc(Cl)cc3n2)c1.[Na+] (stereo not drawn) | inactive: 0.742 |
| COc1ccc(CN(C)C[C@@H]2OCCCC[C@@H](C)Oc3ccc(NC(=O)C4CCCCC4)cc3C(=O)N([C@H](C)CO)C[C@H]2C)cc1 | inactive: 0.985 |
| Cn1cnc(S(=O)(=O)N2CC[C@@H](O)[C@@H]2Cc2cnn(C)c2)c1 | inactive: 0.979 |
| COc1ccc(S(=O)(=O)Nc2ccc3c(c2)C(=O)N([C@H](C)CO)C[C@@H](C)[C@H](CN(C)Cc2ccc(Cl)c(Cl)c2)OCCCC[C@H](C)O3)cc1 | inactive: 0.989 |
| Cc1ccc(S[C@]2(C(=O)NC(C)C)CC(=O)N(Cc3cc(C(F)(F)F)cc(C(F)(F)F)c3)[C@@H]2c2ccc(CO)cc2I)cc1 | inactive: 0.977 |
| COc1ccccc1CNC(=O)C[C@H]1C[C@@H]2c3cc(NC(=O)c4ccc5c(c4)OCO5)ccc3O[C@@H]2[C@@H](CO)O1 | inactive: 1.01 |
| C[C@H]1CCCCO[C@H](CN(C)C(=O)C2CCCCC2)[C@@H](C)CN([C@@H](C)CO)C(=O)c2cc(NC(=O)c3ccncc3)ccc2O1 | inactive: 0.97 |
| CC#N | inactive: 0.993 |
| C[C@@H]1CN([C@@H](C)CO)C(=O)c2cccc(NC(=O)Nc3ccccc3)c2O[C@H]1CN(C)CC1CCCCC1 | inactive: 0.99 |
| O=C(C[C@@H]1C[C@@H]2c3cc(NS(=O)(=O)c4ccc(F)cc4)ccc3O[C@@H]2[C@@H](CO)O1)NC1CCCC1 | inactive: 0.981 |
| C[C@H](CO)N1C[C@H](C)[C@@H](CN(C)S(=O)(=O)c2ccc(Cl)cc2)Oc2ccc(NC(=O)Cn3cnnn3)cc2C1=O | inactive: 1.02 |
| CN(C)Cc1cn(CC[C@@H]2CC[C@H](NS(=O)(=O)c3ccccc3)[C@H](CO)O2)nn1 | inactive: 1.01 |
| CNC[C@H]1Oc2ccc(NC(=O)Cn3cnnn3)cc2C(=O)N([C@@H](C)CO)C[C@H]1C | inactive: 0.988 |
| C[C@@H]1CCCCO[C@H](CN(C)C(=O)NC2CCCCC2)[C@@H](C)CN([C@@H](C)CO)C(=O)c2cc(NC(=O)c3ccncc3)ccc2O1 | inactive: 0.998 |
| C[C@@H]1CCCCO[C@H](CN(C)C(=O)Nc2ccccc2)[C@@H](C)CN([C@H](C)CO)C(=O)c2cc(NC(=O)c3ccccc3)ccc2O1 | inactive: 1 |
| C[C@@H]1CN([C@H](C)CO)C(=O)c2cc(-c3cncnc3)cnc2O[C@H]1CN(C)C(=O)CN1CCOCC1 | inactive: 1.01 |
| N#Cc1cccc(NCCN2CCNC2=O)n1 | inactive: 1.01 |
| COc1ccc(S(=O)(=O)Nc2cccc3c2O[C@H](CN(C)C(=O)Nc2c(C)noc2C)[C@H](C)CN([C@H](C)CO)C3=O)cc1 | inactive: 0.987 |
